57 sequences from the supplement of paper PMC11417369 can be followed below.

The other results are listed elsewhere or left out.

In this assay the test system is PF3D7_0420300 AP2 domain 1 (GST-tagged). Kind of assay: gcPBM binding intensity (ln(normalized median fluorescence intensity)); higher = stronger DNA binding. The essentials: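 Binding intensity is the highest Masliner-normalised natural-log median intensity over replicate spots in either probe orientation. To obtain it, GST-tagged P. falciparum DNA-binding domains made in E. coli were incubated for 1 h on an Agilent 4 × 180k array of primer-extended double-stranded 36-bp intergenic genomic probes plus negative controls. Detection used Alexa488 anti-GST antibody with scanning at 488 nm.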
In the case of “TTTTTATTTATATGATACTTATATATATATATATAT [CACACA_negctrl_site462]”, the “gcPBM binding intensity (ln)” value was 9.26.

For “TCTTTTAAAAAAATTTGTACATATTTTTTGTATTAT [XGTACX_site67]”, the “gcPBM binding intensity (ln)” value was determined as 9.16.

Turning to “TTCTTAATATTGCATGCACACTATATAATAATTGAA [CACACA_site4720]”, the “gcPBM binding intensity (ln)” value stood at 9.29.

For “ATACATACAAAAATTTGTACATATTTCCAATAATGT [XGTACX_site2658]”, the “gcPBM binding intensity (ln)” value worked out at 9.15.

As for “GAAAAAACGAAAAAAATACACACCTGAAAAGATATG [CACACA_site887]”, the “gcPBM binding intensity (ln)” value was found to be 9.61.

In the case of “GCCATAATATGACATACACACACAAAAAAAAAAAAA [CACACA_site8353]”, the “gcPBM binding intensity (ln)” value turned out to be 9.7.

As to “AAATTTCCATTTGGGTGTACATGTGAAACTACAAAG [XGTACX_site208]”, the “gcPBM binding intensity (ln)” value came out at 9.13.

As to “TATTTATCTATTTTGTTATATAATAAAATAAAATAA [CACACA_negctrl_site281]”, the “gcPBM binding intensity (ln)” value was determined as 8.75.

Take “AAACAATTGAATAAATGTACAGATACATTTTTTTAA [XGTACX_site5386]”: the “gcPBM binding intensity (ln)” value is 8.99.

For “AAAAATAAACAAAATTGTACACATTACATACATATA [XGTACX_site966]”, the “gcPBM binding intensity (ln)” value worked out at 9.6.

For the sequence “TATATATATATATGTAGTACTCAATATTGTAGATTA [XGTACX_site3856]”, the “gcPBM binding intensity (ln)” value was 9.1.

As for “AAATATATGTATATATGTACATATGTGTGCTATCAT [XGTACX_site1604]”, the “gcPBM binding intensity (ln)” value amounted to 9.45.

As to “TAATTTTTTTTTAATTGTACATGTGAATATATTTCA [XGTACX_site4115]”, the “gcPBM binding intensity (ln)” value was found to be 9.18.

“GTTTACATTTTAAGAAGTACAAAATTTATGGTTAAA [XGTACX_site450]”: the “gcPBM binding intensity (ln)” value came to 9.07.

Turning to “TTTAAATACAGACATACACACATACACAGACATATA [CACACA_site4460]”, the “gcPBM binding intensity (ln)” value stood at 9.91.

For the sequence “AAAAAAAACAGACACACACACATACAAAATATATAT [CACACA_site1449]”, the “gcPBM binding intensity (ln)” value was 10.2.

In the case of “ATATTTTTATGTACTTCAAAAAAAAAGAAAAACAAA [CACACA_negctrl_site970]”, the “gcPBM binding intensity (ln)” value came to 9.05.

Turning to “CTCTATTGTTAAAAGGTGCTTTTATGATTTTATATA [GTGCAC_site9409]”, the “gcPBM binding intensity (ln)” value is 9.35.

In the case of “TATAGTTTTGAAAACAAACACACAAAAAAAAAAAAA [CACACA_site1691]”, the “gcPBM binding intensity (ln)” value is 9.26.

Regarding “AAGAGGTTAATGAAATGTACACATATATATATATAT [XGTACX_site1861]”, the “gcPBM binding intensity (ln)” value was 9.3.

On to TTTTTTTTCTATGTGGTGCACATTATTTTTTTTTTT, for which the “gcPBM binding intensity (ln)” value stood at 9.41.

In the case of “ATAATTTCACAAATAGTGCAAAAATTAGTAAGAATA [GTGCAC_site9648]”, the “gcPBM binding intensity (ln)” value is 9.25.

As to “TTTTATAAATATTATACATGCATAATGATAAAAAAA [TGCATGCA_site927]”, the “gcPBM binding intensity (ln)” value amounted to 9.09.

On to “AAGAAAAGAACAAGAGCATGCACTTAATAAGAATAA [TGCATGCA_site818]”, for which the “gcPBM binding intensity (ln)” value was found to be 9.24.

As for “TTAATATATTTTAAAAGTACATAATATTATTTTTTA [XGTACX_site3642]”, the “gcPBM binding intensity (ln)” value turned out to be 8.88.

For the sequence “ATACAAAAGGGGAATACACACACATATATATATATA [CACACA_site8694]”, the “gcPBM binding intensity (ln)” value was determined as 9.65.

Take “AATAAACATAGATGTACACACATATACAGATATATA [CACACA_site5570]”: the “gcPBM binding intensity (ln)” value stood at 9.7.

As for “TTGTTCTATATATATGCATGCACGTATGTTAAATTA [TGCATGCA_site659]”, the “gcPBM binding intensity (ln)” value amounted to 9.27.

“TCTCATATATTGAATTGTACATATGTTAAAATATAG [XGTACX_site6764]”: the “gcPBM binding intensity (ln)” value is 9.05.

On to “TATTAATTTTTATACGCATGTGTATAGTAATATATA [TGCATGCA_site1010]”, for which the “gcPBM binding intensity (ln)” value came to 9.08.

“TATAAGTATTAATACACACACAAAATAATAAAAAAA [CACACA_site3481]”: the “gcPBM binding intensity (ln)” value stood at 10.1.

As to “AAAAATAAAGGATATACACACTAATTCTATAAATAT [CACACA_site7344]”, the “gcPBM binding intensity (ln)” value was 9.61.

With “GTCTCGATAATGAAAAGTACAAAATAAAAATAATAA [XGTACX_site6471]”, the “gcPBM binding intensity (ln)” value was 9.19.

For the sequence “TAAAGAATAATACATTCACACAATATTATAAAAATA [CACACA_site5986]”, the “gcPBM binding intensity (ln)” value came to 9.22.

On to “GAAATGTCATATAATAGTACACACATGAAAATATAA [XGTACX_site6838]”, for which the “gcPBM binding intensity (ln)” value worked out at 9.55.

In the case of “TATGATTAATTACCACAATTGACAAAAAAAAAAAAA [CACACA_negctrl_site336]”, the “gcPBM binding intensity (ln)” value was 9.04.

On to “TTGTATGAATTTATTTTTATTGATAATTAATATGTA [TGCATGCA_negctrl_site143]”, for which the “gcPBM binding intensity (ln)” value is 9.13.

“ATATAACTTTTAAAAGCATGCAAATATTTACTCAAT [TGCATGCA_site396]”: the “gcPBM binding intensity (ln)” value worked out at 9.27.

“TTTTTACTATAAGGGGAAAAAAAAAAAAATAATATA [XGTACX_negctrl_site279]”: the “gcPBM binding intensity (ln)” value came out at 8.98.

In the case of “CAAGAAAAGAAACACACACACATATATATATATATA [CACACA_site3881]”, the “gcPBM binding intensity (ln)” value worked out at 9.87.

Regarding “TAAACATATACACGTACATGCAACGGATTTTTTTTT [TGCATGCA_site70]”, the “gcPBM binding intensity (ln)” value was found to be 9.29.

With “TATATATATATATGTGCACACATAATAAAAAAAAAA [CACACA_site3830]”, the “gcPBM binding intensity (ln)” value stood at 9.56.

In the case of “ATATGATTAATTAAGTGTACGTATTTATAATTATAA [XGTACX_site5783]”, the “gcPBM binding intensity (ln)” value worked out at 9.2.

In the case of “ATTACAATTTTAATAGTGCATTTTTATATATTTCTA [GTGCAC_site9918]”, the “gcPBM binding intensity (ln)” value was 9.28.

Consider “TTTATTTATCTTTACGCACACACTTGCATGTACAAA [CACACA_site1118]”, for which the “gcPBM binding intensity (ln)” value was determined as 9.58.

As to “TACCTACCTTTACGGAGTACACAATAATAGTTATAA [XGTACX_site6593]”, the “gcPBM binding intensity (ln)” value came out at 9.16.

“GATGATACGATTATCACACATTTATACTTTCTACAT [CACACA_site5669]”: the “gcPBM binding intensity (ln)” value stood at 9.45.

On to TGTATACATTATTAAGTGCAAGTAGGGAAAAAAAAA, for which the “gcPBM binding intensity (ln)” value was determined as 9.41.

With “ATATAAAAATAATAGAGTACAAAAAAAAAATGTATA [XGTACX_site7054]”, the “gcPBM binding intensity (ln)” value worked out at 9.65.

With “TAATATGTGGACTTTACACACTTGTTTTAAAATTCT [CACACA_site4605]”, the “gcPBM binding intensity (ln)” value was determined as 9.35.

In the case of “ATATTTTACATATTTGCACACATATATTTATATACA [CACACA_site855]”, the “gcPBM binding intensity (ln)” value was determined as 9.65.

As for “ATATATATATATATATGTACTTATTTATTTATTTAT [XGTACX_site4645]”, the “gcPBM binding intensity (ln)” value is 9.26.

With “GAAGACAATTATATGTGTACATATATATACATATAT [XGTACX_site4630]”, the “gcPBM binding intensity (ln)” value was determined as 9.26.

In the case of “GGAATTCATATTAATTGTACATTTAAAGATAGATGA [XGTACX_site3279]”, the “gcPBM binding intensity (ln)” value was determined as 8.99.

Regarding “AGTAGATATTATTATAGTACTTTTTATTTTATATTT [XGTACX_site1551]”, the “gcPBM binding intensity (ln)” value was 9.44.

Consider “AAAATTTATGGAAGGTGTACTGTTAATTATGTATAT [XGTACX_site6446]”, for which the “gcPBM binding intensity (ln)” value was determined as 9.31.

For “ATATTAAAGATATATACACACATATTTATAAATATA [CACACA_site7127]”, the “gcPBM binding intensity (ln)” value amounted to 9.54.
